Assay [1] addresses inosine monophosphate dehydrogenase 2 (IMPDH2), endogenous (human (endogenous in MDA-MB-231 and SK-Mel-103)) (UniProt P12268). Kind of assay: co-IP; endogenous proteins of MDA-MB-231 and SK-Mel-103 cells (transduced with control or RAC1 shRNA); immunoprecipitation with control IgG, IMPDH2- or RAC1-specific antibodies, immunoblotting.
For assay [2] the target is unchanged. The description is as above. The source holds these as a separate data set.

The chains behind the UniProt entries cited, without tags or fusion partners.
UniProt P49915: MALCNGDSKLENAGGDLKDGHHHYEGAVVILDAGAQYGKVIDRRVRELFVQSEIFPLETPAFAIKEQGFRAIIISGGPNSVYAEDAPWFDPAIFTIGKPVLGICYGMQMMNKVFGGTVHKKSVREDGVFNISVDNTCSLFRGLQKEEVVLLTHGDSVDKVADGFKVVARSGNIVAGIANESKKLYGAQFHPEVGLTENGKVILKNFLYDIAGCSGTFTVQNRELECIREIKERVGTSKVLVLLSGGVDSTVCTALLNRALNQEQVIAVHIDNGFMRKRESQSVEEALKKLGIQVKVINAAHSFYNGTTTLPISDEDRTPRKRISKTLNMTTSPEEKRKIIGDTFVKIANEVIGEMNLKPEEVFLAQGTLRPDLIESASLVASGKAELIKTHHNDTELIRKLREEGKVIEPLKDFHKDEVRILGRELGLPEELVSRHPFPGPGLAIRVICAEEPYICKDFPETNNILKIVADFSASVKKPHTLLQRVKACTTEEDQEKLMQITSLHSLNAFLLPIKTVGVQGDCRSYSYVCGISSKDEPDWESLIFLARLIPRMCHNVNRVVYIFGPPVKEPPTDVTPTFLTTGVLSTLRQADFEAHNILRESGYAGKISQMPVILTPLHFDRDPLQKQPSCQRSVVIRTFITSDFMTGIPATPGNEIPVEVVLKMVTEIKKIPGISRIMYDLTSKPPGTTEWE

Like-named read-outs stand apart in the source and are kept apart here. Results are given in words; binding and its absence hold for the method and conditions named. Binding seen in cells or lysates may run through a third protein. Some results given as binding are weak or reduced against the parent protein; the word gives no strength.

From article PMC8526568 come the findings set out here.

Turning to “NME1 (nucleoside diphosphate kinase family member), endogenous (from UniProt P15531 1-152) (enzyme)”, the binding entry in assay [1] is recorded as “binds”. For “guanosine monophosphate synthase (GMPS), endogenous (from UniProt P49915 1-693) (enzyme)”, in assay [1], the binding entry is listed as “binds”. Still for that read-out and setting: to “CDC42, endogenous (from UniProt P60953 1-191)” belongs “no binding”; to “RHOA, endogenous (from UniProt P61586 1-193)”, “binds”.

B1: GMP reductase (GMPR), endogenous (enzyme, UniProt P36959 1-345)
chain: MPRIDADLKLDFKDVLLRPKRSSLKSRAEVDLERTFTFRNSKQTYSGIPIIVANMDTVGTFEMAAVMSQHSMFTAIHKHYSLDDWKLFATNHPECLQNVAVSSGSGQNDLEKMTSILEAVPQVKFICLDVANGYSEHFVEFVKLVRAKFPEHTIMAGNVVTGEMVEELILSGADIIKVGVGPGSVCTTRTKTGVGYPQLSAVIECADSAHGLKGHIISDGGCTCPGDVAKAFGAGADFVMLGGMFSGHTECAGEVFERNGRKLKLFYGMSSDTAMNKHAGGVAEYRASEGKTVEVPYKGDVENTILDILGGLRSTCTYVGAAKLKELSRRATFIRVTQQHNTVFS
Take B1: in assay [2], the binding entry was “binds”.
